Data on 7 molecules can be found in the supplement of paper PMC9513381.

Recombinant human monoclonal antibodies (heavy:light variable regions). ELISA EC50 on the named antigen, from 10 µg/ml down; IC50 / IC90 against spike pseudovirus on 293T-ACE2 cells, 48 h; lower = stronger. Calls: IC50 above 1,000 ng/ml = non-neutralizing; EC50 above 1,000 ng/ml = non-binder. The source prints 1000 for neutralization that was not reached; it is given as >1000 ng/ml. Only binders of the Wuhan-Hu-1 domain have neutralization values.

The labels stand for the following.
B1: B2137 (protein)
chain 1: QVQLQESGPGLVKPSETLSLTCSVSGGSITSGGDYWSWIRQRPGKGLEWIGYIDYSGSTYYNPSITNRVSISLDTSKNEFYLSLTSVTAADTAVFYCARGGGGYSYEDYWYFGLWGRGTLVTVSS
chain 2: QSVLTQPPSASARLGASVKLTCTLSSDHNNYAVAWHQQQPGKGPRCLMKVYSNGSHIKGDGFPDRFSGSSSGAERYLTISNLQSEDEADYYCQTWGNVFGAGTKLTVL
B2: B2138 (protein)
chain 1: QVQLVQSGAEVKKPGSSVRVSCKASGGTFINFAVSWVRQAPGEGLEYMGGLIPILRTSHHAQKFQGRLTITADESASTAYMELSSLKSEDTAVYYCATGVRYCGGGGCYSAYFQQWGQGTLVTVSS
chain 2: EIVLTQSPGTLSLSPGERATFSCRASQSVSSSHLAWYQQKPGQAPRLLIYGTSSRATGIPDRFSGSGSGTDFTLTISRLEREDFAVYYCHHYGSSTGTFGQGTKVEIK
B3: B1001 (protein)
chain 1: QVQLVQSGAEVKKPGSSVKVSCKASGGTFSNYAISWVRQAPGQGLEWMGGIIPMFAIANYAQKFQGRVTISADKSTSTAHMELSSLSSEDTAVYYCASLGNGITIVRGAPITDHHFAFWGQGTLVTVSS
chain 2: QSALTQPASVSGSPGQSITISCTGTSSDVGNYNLVSWYQHHPGKAPKLMIYEVSKRPSGVSNRFSGSKSGNTASLTISGLQAEDEADYFCCSFAASSTGHWVFGGGTKLAV
B4: B1002 (protein)
chain 1: QVQLVQSGAEVKKPGSSVKVTCRASGGTFSNLAISWVRQAPGQGLEWMGSIIPMFTISNYAQKLKGRVTITADKSTSTAYMELSSLRSGDTAVYFCASLGSNITVVRGAPITDHHFHYWGQGTLVTVSS
chain 2: QSALTQPASVSGSPGQSVTISCTGTSSDVGTYNLVSWYQQHPGKAPKLMIYEVSKRPSGVSNRFSGSKSGNTASLTISGLQAEDEADYYCCSYAASSTTHWVFGGGTKLAV
B5: B2136 (protein)
chain 1: VQLVESGGGVVQPGRSLRLSCAASGFTFSVYGMHWVRQAPGSGLEWVAVISFDGNKKYYADSVKGRFTISRDNPKNTLYLQMNSLRPNDTAVYYCAKDGMATSDHLDYWGLGALVTVSS
chain 2: DIQMTQSPSSLSTSVGDRVTITCRASQSITNYLNWYQQKPGKAPKLLIYAASTLRSGVPSRFSGSGSGTDFTLTISSLQPEDFATYYCQQSYSTPGTFGQGTKVEIK
B6: B1003 (protein)
chain 1: QVQLQESGPGLLKPSETLSLTCSVSGGSLSSANFRWNWIRQPPGKGLEWIGNFIYSVSTNYNPSLKSRLTISMDTSKNQFSLKLTSVTAADTAVYFCARDTRYYDRSGSVTSDGMDVWGQGTTVTVSS
chain 2: DIQMTQSPSTLSASVGDRVTITCRASQSISNWLAWYQQKPGQAPRLLIYEASTLERGVPSRFSGSGSGTEFTLTISRLQPDDFATYYCQQCGGDSVTFGQGTKLEIK
B7: B2131 (protein)
chain 1: EVQLVETGGGLIQPGGSLRLSCAVSEFIVSSNYMSWLRQAPGKGLEWVSVIYSGGSTFYADSVKGRFIISRDNSKNTLYLQMNSLRPEDTAIYYCARDWGEFYFDHWGQGTLVTVSS
chain 2: EIVLTQSPGTLSLSPGERATLSCRASESVGGSYLAWYQQKPGQAPRLLIYDASNRATGIPDRFSGSGSGTDFSLTISRLEPVDFAIYYCQQYHSSPRTFGQGTKLEIK

One experiment has as its target SARS-CoV-2 Wuhan-Hu-1 spike pseudovirus. In words: pseudovirus neutralization IC50; higher = weaker neutralization. The protocol: (§1)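 Single-round luciferase reporter pseudovirus mixed with antibody dilutions and put on 293T-ACE2 cells for 48 h; signal relative to no-antibody wells, four-parameter fit.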
On to B1, for which the “pseudovirus neutralization IC50” value was above 1 µg/mL.

As for B2, the “pseudovirus neutralization IC50” value was 0.0048 µg/mL.

Take B3: the “pseudovirus neutralization IC50” value worked out at 0.00161 µg/mL.

With B4, the “pseudovirus neutralization IC50” value was found to be 0.0142 µg/mL.

For the molecule B5, the “pseudovirus neutralization IC50” value was 0.0101 µg/mL.

In the case of B6, the “pseudovirus neutralization IC50” value amounted to 0.0239 µg/mL.

B7: the “pseudovirus neutralization IC50” value came out at 0.00749 µg/mL.

Another experiment shares this target. In words: pseudovirus neutralization IC90; higher = weaker neutralization. The protocol: as §1
As to B1, the “pseudovirus neutralization IC90” value is above 1 µg/mL.

Turning to B2, the “pseudovirus neutralization IC90” value was 0.0191 µg/mL.

Regarding B3, the “pseudovirus neutralization IC90” value worked out at 0.0108 µg/mL.

B4: the “pseudovirus neutralization IC90” value stood at 0.0686 µg/mL.

Regarding B5, the “pseudovirus neutralization IC90” value was 0.104 µg/mL.

As for B6, the “pseudovirus neutralization IC90” value is 0.424 µg/mL.

Consider B7, for which the “pseudovirus neutralization IC90” value was 0.0647 µg/mL.

Another experiment has as its target SARS-CoV-2 Delta (B.1.617.2) spike RBD. Briefly: ELISA binding EC50; higher = weaker binding; ELISA of recombinant human antibody on coated antigen, from 10 µg/ml in fourfold dilutions; four-parameter fit. On the technique in general: An ELISA detects its analyte on a solid surface through an enzyme-linked reagent.
Take B1: the “ELISA binding EC50” value is above 1 µg/mL.

On to B2, for which the “ELISA binding EC50” value was found to be 0.00793 µg/mL.

Take B3: the “ELISA binding EC50” value is above 1 µg/mL.

Regarding B4, the “ELISA binding EC50” value was 0.0327 µg/mL.

Turning to B5, the “ELISA binding EC50” value was above 1 µg/mL.

On to B6, for which the “ELISA binding EC50” value was determined as 0.0101 µg/mL.

With B7, the “ELISA binding EC50” value was determined as 0.0169 µg/mL.

Another experiment concerns the target SARS-CoV-2 Omicron BA.1 spike protein. The description is as above.
On to B1, for which the “ELISA binding EC50” value is above 1 µg/mL.

B2: the “ELISA binding EC50” value is 0.213 µg/mL.

On to B3, for which the “ELISA binding EC50” value was above 1 µg/mL.

With B4, the “ELISA binding EC50” value was above 1 µg/mL.

On to B5, for which the “ELISA binding EC50” value was 0.00714 µg/mL.

As to B6, the “ELISA binding EC50” value was found to be 0.0069 µg/mL.

For the molecule B7, the “ELISA binding EC50” value stood at 0.633 µg/mL.

Another experiment concerns the target SARS-CoV-2 Wuhan-Hu-1 spike receptor-binding domain. The description is as above.
Turning to B1, the “ELISA binding EC50” value worked out at 0.00832 µg/mL.

For the molecule B2, the “ELISA binding EC50” value amounted to 0.00281 µg/mL.

Consider B3, for which the “ELISA binding EC50” value was 0.00147 µg/mL.

With B4, the “ELISA binding EC50” value is 0.00614 µg/mL.

For the molecule B5, the “ELISA binding EC50” value came to 0.00232 µg/mL.

Turning to B6, the “ELISA binding EC50” value came to 0.0027 µg/mL.

As to B7, the “ELISA binding EC50” value worked out at 0.00322 µg/mL.
